Reference: PubChem BioAssay AID1345083 (National Center for Advancing Translational Sciences (NCATS), 2018)
Hit rate of the full screen: of about 94,000 compounds, about 6,200 (6.6%) were called active. Inconclusive results, whose numbers are uncertain, are shown with a selection of clear calls. Calls follow the shape of the dose curve; as a rule, active = well fitted inhibition curve with a large enough effect; inconclusive = small, poorly fitted or top-dose-only effect; inactive = flat fitted curve, though single readings scatter. Potencies of inconclusive entries are doubtful fits and often do not repeat.

Test: Cytotoxic Profiling in HEK 293 Cell Line of Diverse Libraries Using Quantitative High-Throughput Screening; also: nearly all actives have a fitted effect of over 60% in size
Settings: HEK 293 viability, ATP luminescence (CellTiter-Glo), 48-72 h; series mostly up to 115 µM
In short: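 Viability of HEK 293 cells, plated at 250 cells/well, was judged by cellular ATP after compound treatment for 48 or 72 hr. Luminescence was imaged 10 min after CellTiter-Glo addition at room temperature.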
Potency is read from the fitted curve at half-maximal effect; tags tell the direction and shape of the fitted curve.

| SMILES | Potency |
| --- | --- |
| COc1ccc(-c2cn3c(n2)N(C(=O)Cc2ccccc2)CCC3)cc1 | inconclusive: 44.7 µM [inhibitor, partial curve, poor fit] |
| Cc1ccsc1[C@@H]1CCN(Cc2cccn2-c2cccnc2)C[C@H]1O | inconclusive: 79.4 µM [inhibitor, single point] |
| O=C([C@@H]1C[C@H](F)CN1C(=O)c1cccc(Cl)c1)N1CCCCC1 | inactive |
| COc1ccc(CN2C(=O)[C@@H]3C[C@@H](CN3C3CCCC3)Oc3ccccc32)cc1 | inconclusive: 100 µM [inhibitor, partial curve, poor fit] |
| COCCOc1ccc2c(n1)CCN(C(=O)CC1CCCCC1)C2 | inconclusive: 31.6 µM [inhibitor, partial curve, poor fit] |
| COC[C@@H]1CN(Cc2cccc(C#N)c2)C[C@H]1c1ccncc1 | inactive |
| O=C1Nc2ccccc2CC12CCN2[S+](=O)([O-])c1cccs1 (configuration not stated) | inactive |
| CC(=O)c1cc(CN2CCOC(CCCc3ccccc3)C2)cs1 (configuration not stated) | inconclusive: 89.1 µM [inhibitor, single point] |
| O=C(NC1CC(c2nnc(CO)n2C2CC2)C1)c1nc2ccccc2[nH]1 (configuration not stated) | inactive |
| CCN1C(=O)C2(CCN(S(=O)(=O)c3cccc(C(F)(F)F)c3)CC2)c2ccccc21 | inconclusive: 39.8 µM [inhibitor, partial curve, poor fit] |
| COc1ccc(C2(C(=O)N3CCC4(CC3)C(OC)CN4c3cccc(F)c3)CC2)cc1 (configuration not stated) | active: 44.7 µM |
| O=C1[C@@H]2C[C@@H](CN2Cc2ccc3ccccc3n2)Oc2ccccc2N1Cc1ccccc1 | active: 44.7 µM |
| O=C(NC1CCCCC1)N1CCC(c2noc(-c3ccncc3)n2)C1 (configuration not stated) | inconclusive: 12.6 µM [inhibitor, full curve] |
| COCC(=O)Nc1ccc(-c2noc([C@@H]3CCCN3C)n2)cn1 | inactive |
| Cc1noc2c(-c3cn[nH]c3)cc(-c3cccc(C(F)(F)F)c3)nc12 | active: 35.5 µM |
| O=C(NC1CCCN(c2ccc3nnc(-c4ccccc4)n3n2)C1)c1ccc(Cl)nc1 (configuration not stated) | active: 28.2 µM |
| Cn1nc(N2CCC(NS(=O)(=O)c3ccc4c(c3)CCC4)CC2)ccc1=O | inconclusive: 56.2 µM [inhibitor, partial curve, poor fit] |
| Cc1ccc(NC(=O)N2CCC(c3noc(COCC4CC4)n3)CC2)cc1F | inconclusive: 50.1 µM [inhibitor, partial curve, poor fit] |
| COC(=O)CNC(=O)c1nc2cccnc2n(Cc2ccccc2OC)c1=O | inactive |
| CCC(C)NC(=O)c1cc(-c2ccccc2OC)nc2c1cnn2C (configuration not stated) | inactive |
| O[C@H]1[C@H](NCc2ccco2)[C@H]2CO[C@H](O2)[C@@H]1N1CCCCC1 | inactive |
| Cc1c(Cl)cccc1NC(=O)CN1C(=O)NC2(CCCCC2)C1=O | inactive |
| CCCCN1C(=O)c2ccccc2C(C(=O)Nc2cccc(NC(C)=O)c2)C12CCCC2 (configuration not stated) | inconclusive: 70.8 µM [inhibitor, single point] |

| SMILES | Potency |
| --- | --- |
| Cc1ccccc1CN1CC[C@H](c2nc3ncccc3[nH]2)C1 | inconclusive: 126 µM [inhibitor, partial curve, poor fit] |
| COc1ccc(-c2nn(-c3ccccc3)cc2CN2C[C@@H](C)O[C@@H](C)C2)c(F)c1 | inconclusive: 79.4 µM [inhibitor, partial curve, poor fit] |
| COc1ccc(-c2ccc(C(=O)NCC(F)F)c(Cl)c2)nn1 | inconclusive: 100 µM [inhibitor, partial curve, poor fit] |
| Cc1ccc(NC(=O)N2CCc3[nH]c4ccc(F)cc4c3C2)cc1C | inconclusive: 50.1 µM [inhibitor, partial curve, poor fit] |
| COc1ccc(C(=O)N[C@@H]2C=C[C@@H](c3c(C)nn(-c4ccc(C)c(Cl)c4)c3C)C2)cc1 | inconclusive: 39.8 µM [inhibitor, partial curve, poor fit] |
| C[C@H]1[C@@H]2[C@@H](O)C([C@H](C)C(=O)NCCN3CCCC3)CC[C@@]2(C)CC[C@@H]1NC(=O)CC(C)(C)C (some centres not stated) | inconclusive: 89.1 µM [inhibitor, partial curve, poor fit] |
| Cc1ccc(Nc2ccnc(N3CCCN(C(=O)N(C)C)C3)n2)cc1 | inconclusive: 50.1 µM [inhibitor, partial curve, poor fit] |
| CCCc1cc(C(=O)N2CC[C@@H]3[C@@H](CCC(=O)N3CC(C)C)C2)ccn1 | inactive |
| CC(=O)N1CCN(c2nc3c(s2)CC(C(=O)NCc2cccc(Cl)c2)CC3)CC1 (configuration not stated) | inconclusive: 56.2 µM [inhibitor, partial curve, poor fit] |
| COc1ccc(-n2nc(C)c([C@H]3C=C[C@@H](OC(=O)N[C@H](C)c4ccccc4)C3)c2C)cc1 | active: 14.1 µM |
| COCCCNC(=O)c1cn2cc(-c3ccc(C(F)(F)F)cc3)sc2n1 | inconclusive: 44.7 µM [inhibitor, partial curve, poor fit] |
| CN1Cc2nc(-c3ccc4c(c3)OCO4)ccc2OCC1=O | inconclusive: 89.1 µM [inhibitor, partial curve, poor fit] |
| O=C(NCCc1cccs1)c1cc2n(n1)CC(c1ccc3c(c1)OCO3)OC2 (configuration not stated) | inconclusive: 50.1 µM [inhibitor, partial curve, poor fit] |
| Cn1c(CN2CCOC[C@H]2c2ncc(-c3ccc(Cl)cc3)[nH]2)nc2ccccc21 | active: 79.4 µM |
| O=C(C1CCN(S(=O)(=O)c2cccc(C(F)(F)F)c2)CC1)N1CCC(c2ccccc2)CC1 | active: 22.4 µM |
| Cc1cnc(C)n1C1CCN(S(=O)(=O)c2ccccc2)CC1 | inconclusive: 50.1 µM [inhibitor, partial curve, poor fit] |
| CC1CCC(NC(=O)C2CCN(c3cc(C(F)(F)F)ncn3)CC2)CC1 (configuration not stated) | inconclusive: 8.91 µM [inhibitor, partial curve, poor fit] |
| Cc1ncsc1C(=O)N1CCNc2cnc(Nc3cccc(F)c3)nc2C1 | inconclusive: 56.2 µM [inhibitor, partial curve, poor fit] |
| COCC(=O)N[C@H]1C[C@@H](Cc2cc(-c3ccccc3)on2)C1(C)C | inconclusive: 63.1 µM [inhibitor, full curve] |
| COC(=O)[C@@H]1Cc2nc[nH]c2CN1Cc1cc2ccccc2o1 | inactive |
| COc1cccc(C(=O)N2CCC3(CC2)CC(OC)CCO3)c1 (configuration not stated) | inactive |
| O=C1N(Cc2ccccc2)CCOC12CCN(Cc1cccc(F)c1)CC2 | inconclusive: 100 µM [inhibitor, partial curve, poor fit] |
| C=CCCOC(=O)N1C[C@@H](C(=O)OCC)[C@@H]2Oc3cc(OC)ccc3[C@@H]21 | inactive |

| SMILES | Potency |
| --- | --- |
| COc1ccc(C(=O)N2CCC3(CC2)CN(c2ccccc2)C3=O)cc1OC | inconclusive: 39.8 µM [inhibitor, partial curve] |
| Cc1ccc(C2Cn3nnc(C(=O)N4CCN(C(=O)c5cccc(Cl)c5)CC4)c3CO2)cc1 (configuration not stated) | active: 31.6 µM |
| O=C(Cc1ccc(Br)cc1)NCc1nnc2ccc(-c3ccc(F)cc3)nn12 | inconclusive: 79.4 µM [inhibitor, partial curve, poor fit] |
| O=C(Cn1cccc1-c1nc(-c2ccc(F)cc2)no1)NC1CCCC1 | inconclusive: 89.1 µM [inhibitor, single point] |
| COCCOCc1nc(C2CCN(C(=O)Nc3ccccc3F)C2)no1 (configuration not stated) | inactive |
| CC(=O)N1CCc2nc(C3CC3)nc(-c3ccc(O)cc3)c2CC1 | inactive |
| CN1CCN(C(=O)CC2=C3CCCCC3NC2=O)CC1 (configuration not stated) | inactive |
| O=C(NCc1ccccc1)O[C@H]1COCCN(c2nc3ccccc3s2)C1 | inconclusive: 100 µM [inhibitor, partial curve] |
| Cc1ccc(NC(=O)N2CCC(Oc3ncccc3C(=O)N3CCCCC3)C2)cc1 (configuration not stated) | inactive |
| C[S+](=O)([O-])c1ccc(-c2nnc3ccc(C(=O)NCc4ccccc4)cn23)cc1 | inactive |
| Cc1nn(C)c(C)c1CN1C[C@@H](COCC2CC2)[C@H](c2ccccn2)C1 | inconclusive: 17.8 µM [inhibitor, full curve] |
| Cc1ccc(-c2cc(C(=O)NCC(F)F)c3cnn(C)c3n2)c(C)c1 | inconclusive: 79.4 µM [inhibitor, partial curve] |
| Fc1ccc(-c2noc([C@@H]3CCCN3Cc3ccc(C(F)(F)F)cc3)n2)nc1 | inactive |
| COc1cccc(-c2ccc(C(=O)NCCN[S+](=O)([O-])c3cccc(C(F)(F)F)c3)cc2)c1 | active: 31.6 µM |
| Cc1ccc(-c2cc(O)c3c(c2)CN(C(=O)[C@@H](N)Cc2cnc[nH]2)CCO3)cc1 | inconclusive: 79.4 µM [inhibitor, single point] |
| Cc1ccc(OCc2nc(C3CCN(C(=O)Cn4nc(C)cc4C)CC3)no2)cc1 | inactive |
| COc1cccc(NC(=O)c2ccc3c(c2)NC(C)(CCCCN2CCOCC2)CO3)c1 (configuration not stated) | inconclusive: 100 µM [inhibitor, partial curve] |
| CC[C@@]1(C(=O)O)C[C@H](C(=O)NCc2ccncc2)[C@H](c2ccc(OC)cc2)N1C | inactive |
| CC(=O)N1CCC2(CC1)OC(=O)N(Cc1ccccc1F)C2(C)c1ccccc1 (configuration not stated) | inactive |
| CN(C)c1nc2c(c(=O)[nH]1)CCN(Cc1ccncc1)CC2 | inconclusive: 89.1 µM [inhibitor, partial curve, poor fit] |
| CC(NC(=O)C1CCN(c2nccc(Nc3ccccc3F)n2)CC1)c1ccc(F)cc1 (configuration not stated) | inconclusive: 50.1 µM [inhibitor, partial curve, poor fit] |
